Data reported in PMC4336329 (PLoS ONE, 2015).
Screen size: about 310,000 compounds; about 14,000 (4.5%) showed an effect of 50% or more. Effects have a minus sign here. The list shows a part of the results.

Biological target: human ether-à-go-go-related gene (hERG) potassium channel (human, UniProt Q12809)
Test: primary screen, population patch clamp on CHO cells stably expressing hERG
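Further: peak tail current of the secondary pulse compared with the same well before compound.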

Chain of human ether-à-go-go-related gene (hERG) potassium channel (Q12809 whole entry, looked up): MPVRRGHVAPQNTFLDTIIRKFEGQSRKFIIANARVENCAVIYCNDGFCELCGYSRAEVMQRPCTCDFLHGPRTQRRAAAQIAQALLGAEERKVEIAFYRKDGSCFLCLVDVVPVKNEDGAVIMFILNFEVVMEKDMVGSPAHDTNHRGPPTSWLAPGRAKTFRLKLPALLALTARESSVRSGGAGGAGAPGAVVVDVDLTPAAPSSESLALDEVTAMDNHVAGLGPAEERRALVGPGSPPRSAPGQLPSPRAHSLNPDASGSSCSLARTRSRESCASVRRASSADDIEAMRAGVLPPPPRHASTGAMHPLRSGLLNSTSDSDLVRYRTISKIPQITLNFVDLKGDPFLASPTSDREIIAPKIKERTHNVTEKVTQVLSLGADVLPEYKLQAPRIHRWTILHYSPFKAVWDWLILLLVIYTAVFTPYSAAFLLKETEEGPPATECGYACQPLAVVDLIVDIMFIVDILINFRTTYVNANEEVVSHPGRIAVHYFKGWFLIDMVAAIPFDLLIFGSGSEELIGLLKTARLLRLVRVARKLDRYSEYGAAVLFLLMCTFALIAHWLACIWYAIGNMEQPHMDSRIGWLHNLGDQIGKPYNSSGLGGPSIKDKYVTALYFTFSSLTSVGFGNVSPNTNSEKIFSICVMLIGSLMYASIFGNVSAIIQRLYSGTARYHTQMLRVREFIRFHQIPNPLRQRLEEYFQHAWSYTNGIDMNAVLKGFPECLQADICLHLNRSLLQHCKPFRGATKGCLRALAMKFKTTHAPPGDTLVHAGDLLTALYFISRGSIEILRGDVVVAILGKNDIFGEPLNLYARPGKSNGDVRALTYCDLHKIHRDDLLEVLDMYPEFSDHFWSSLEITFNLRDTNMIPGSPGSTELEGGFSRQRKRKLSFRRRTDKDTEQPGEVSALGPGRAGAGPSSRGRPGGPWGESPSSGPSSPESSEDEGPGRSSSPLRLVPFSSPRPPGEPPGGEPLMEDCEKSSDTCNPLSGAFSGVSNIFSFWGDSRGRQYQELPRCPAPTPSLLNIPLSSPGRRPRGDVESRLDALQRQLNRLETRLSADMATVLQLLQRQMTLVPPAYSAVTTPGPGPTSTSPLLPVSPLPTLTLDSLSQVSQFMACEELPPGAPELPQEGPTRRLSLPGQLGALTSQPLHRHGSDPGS

SMILES | hERG current change (%, negative = inhibition) at 10uM [%]
COC(=O)c1c(C(=O)OC)c(-c2ccc(OC)cc2)n2c1CS(=O)C2 (stereo not drawn) | 10.1
O=c1[nH]cnc2cc(Cl)ccc12 | 8.17
O=C(O)C(CC1CCCCC1)N1CCS(=O)(=O)CC1 (stereo not drawn) | 11.6
O=C1CC(N2CCC(c3nc4ccccc4[nH]3)CC2)C(=O)N1Cc1ccccc1 (stereo not drawn) | -45.8
Cc1c(C(=O)NCCc2ccc3c(c2)OCCO3)oc2ccccc12 | -19.5
O=C(NCc1ccc2c(c1)OCO2)Nc1ccc(F)cc1 | 1.83
Nc1ccc2oc(-c3cccc(Br)c3)nc2c1 | -6.71
COCC(C)OC(=O)C(C#N)c1nc2ccccc2nc1N1CCN(Cc2ccccc2)CC1 (stereo not drawn) | -31
COc1ccccc1C(=O)N1CCN(Cc2ccc3c(c2)OCO3)CC1 | -0.86
Nc1nc(N)nc(-c2cc(F)ccc2O)n1 | 12.4
Cc1ccc(C)c(CN2CCC(CNC(=O)Nc3ccc(Cl)cc3)CC2)c1 | -68.6
Cc1ccc(NC(=O)CCC(=O)c2ccc(F)cc2)cc1Cl | -4.53
O=C(Nc1cccc(F)c1)c1cc(S(=O)(=O)N2CCC3(CC2)OCCO3)ccc1F | -15.7
CC(=O)N/N=C/C1=CCC2CC1C2(C)C (stereo not drawn) | 44.2
CN(C)S(=O)(=O)c1cccc(N=C2NN=C(c3ccccc3)CS2)c1 | 0.178
CCn1c(C)nc2cc(C(=O)NNC(=S)Nc3ccccc3)ccc21 | 25.6
Cc1nc2ccccc2c(=O)n1NC(=O)c1cccc(Cl)c1 | 13
C(=N\Nc1nc(N2CCCC2)nc(N2CCCC2)n1)/c1ccncc1 | 2.85
NN=C(c1ccccc1)c1ccccc1 | 14.6
Nc1nc2ncc(C(=O)c3cc(F)ccc3O)cc2s1 | -0.22
CCC(CC)c1nc2ccccc2c(=O)[nH]1 | 21.7
Cc1ccc(C)c(N2CC(C(=O)Nc3cc(C)on3)CC2=O)c1 (stereo not drawn) | 17.5
COc1cc(NC(=O)CCN2CCN(c3ccccc3F)CC2)cc(OC)c1 | -56.6

SMILES | hERG current change (%, negative = inhibition) at 10uM [%]
O=C(NCCc1ccccn1)c1cc(-c2ccc(Cl)cc2)nc2ccccc12 | -19.6
O=C(NCCCN1CCOCC1)C(=O)N/N=C/c1ccc2c(c1)OCO2 | 12.4
CCC(Oc1ccccc1)C(=O)NCc1ccc(S(N)(=O)=O)cc1 (stereo not drawn) | -7.92
CCOC(=O)C1=C[C@]2(CC)CCCN3CCc4c(n1c1ccccc41)[C@@H]32 | -91.8
CCN(C(=O)CSc1nnc(Nc2ccccc2)s1)C1CCS(=O)(=O)C1 (stereo not drawn) | -15.2
CCC(C)Sc1cccc(-c2nc3ccc(C)cn3c2NC2CCCCC2)c1.O=C(O)C(F)(F)F (stereo not drawn) | 21.7
CCOc1ccc(C2C3=C(CCCC3=O)N(CC(=O)O)C3=C2C(=O)CCC3)cc1 | 2.21
Cc1nn(CC(=O)NC(C)c2ccccc2)c(C)c1[N+](=O)[O-] (stereo not drawn) | -2.83
COC(=O)C1CCN(C(=O)CSc2ccccc2)CC1 | -2.01
COc1cc(SC)ccc1C(=O)Nc1nc2ccccc2[nH]1 | 13.3
CCN1CCN(c2cc(C)c3cc(NC(=O)Cc4ccccc4OC)ccc3n2)CC1 | -27.8
Cc1csc(NC(=O)/C=C/c2ccc(C)o2)n1 | 14
Cc1ccc(CC2S/C(=C(/C#N)C(=O)NCc3ccco3)N(c3ccccc3)C2=O)cc1 (stereo not drawn) | 4.55
CCOc1ccc2nc(NC(=O)C3=NNC(=O)CC3)sc2c1 | 15.3
CC(C)OC(=O)c1ccc(NC(=O)c2ccccc2)cc1 | -4.54
O=C(NC1CC1)c1ccc(F)cc1Cl | 21
O=C(NNC(=O)c1cc(-c2cccnc2)nc2ccccc12)Nc1ccc(Cl)cc1 | -39.5
O=c1[nH]c(CN2CCOCC2)nc2scc(-c3ccccc3)c12 | 10.7
COc1ccc(CNC(=O)C(c2ccc(C)o2)N(C(=O)c2snc(C(N)=O)c2N)c2ccccc2OC)cc1 (stereo not drawn) | -2.47
Cc1cc(C)c(S(C)(=O)=O)c(Oc2cccc(C(F)(F)F)c2)n1 | 6.13
Cn1c(=O)c2c(nc(NCc3ccccc3)n2C)n(C)c1=O | 3.65
Cc1ccc(-n2nc(C)c(NC(=O)CCl)c2C)cc1 | -9.23
COc1ccc(NC(=O)NN2CCOCC2)cc1OC | 39.8

SMILES | hERG current change (%, negative = inhibition) at 10uM [%]
COc1cccc(CNC(=O)CNS(=O)(=O)c2ccc(Br)s2)c1 | 4.12
Oc1ccccc1C(=S)N1CCCCC1 | 14.5
Cc1ccc(C)c2[nH]c(=O)c(CCNC(=O)c3ccc(S(=O)(=O)N(C)C)cc3)cc12 | 0.852
CCOC(=O)C(=O)C1=CN(Cc2ccccc2)C=C(C#N)C1 | 18
Cc1cc(C)cc(OCC(=O)NCc2cc(C)nc3ccccc23)c1 | -32.4
CC(=O)Nc1ccc(S(=O)(=O)NC2(C(F)(F)F)NC(=O)N(C3CCCCC3)C2=O)cc1 (stereo not drawn) | 2.87
CN(C)CCNC(=O)c1cc2c(s1)-c1ccccc1OC2 | -67.2
Cc1cc(SCCC(=O)O)nc2ccccc12 | 22.1
O=C(Nc1ccc(F)cc1)Nc1ccc2ccccc2n1 | 14.2
O=C(O)c1ccc(CP(=O)(c2ccccc2)c2ccccc2)cc1 | 22.4
COc1cc(OC)cc(C(=O)Nc2cccc3ccccc23)c1 | 12.4
COc1ccc(C(CNC(=O)c2ccc(OC)c(S(=O)(=O)N3CCCC3)c2)N2CCCC2)cc1 (stereo not drawn) | 9.12
COc1ccc(C(=O)Nc2ccc3c(c2)OCO3)cc1OC | -12.6
COc1ccc(C2Nc3cc(OC)ccc3-n3cccc32)cc1 (stereo not drawn) | 1.93
Cc1ccc(-c2nc3ncccn3c2Nc2ccccc2C)o1 | -12.3
COc1ccc(S(=O)(=O)N2CCc3ccccc3C2)cc1OC | -18.8
COc1ccc(CN2CCCC(CO)(Cc3ccc(F)cc3)C2)c(OC)c1OC (stereo not drawn) | -71.1
O=C(c1ccc(Br)s1)N1CCN(S(=O)(=O)c2ccccc2)CC1 | -34.4
O=C(Nc1ccc(F)c(F)c1)c1cc(S(=O)(=O)N2CCN(c3ccccn3)CC2)ccc1F | 7.19
O=C(Nc1ccccc1O)c1c(O)c2c([nH]c1=O)CCCC2 | 28.6
COc1cc(-n2cnnn2)ccc1S(=O)(=O)N1CCOCC1 | -16.2
CCc1nc2ccccc2c(C(=O)OCCN2C(=O)c3ccccc3C2=O)c1C | -12.2
CCOC(=O)c1c(NC(=O)CNCCOC)sc2c1CCCC2 | -6.27

SMILES | hERG current change (%, negative = inhibition) at 10uM [%]
COc1ccccc1N1CCN(c2cc(=O)n(-c3ccccc3Cl)c(=O)[nH]2)CC1 | 8.28
CCOc1ccc(NC(=O)C2=NN(c3ccccc3)C(=O)CC2)cc1S(=O)(=O)N1CCCCC1 | -8.8
O=C(CNc1ccc(F)cc1)N/N=C1\CCCc2ccccc21 | 0.412
O=C(Nc1ccc(F)cc1F)c1cc2n(n1)C(C(F)(F)F)C1CCCCC1N2 (stereo not drawn) | 11.1
Cc1ccc(-c2cc(-c3ccccc3C)[nH]n2)c(O)c1 | -0.266
COc1ccc(CCNC(=O)CSc2nnc(Cc3cccn3C)n2C)cc1OC | 1.51
O=C(Nc1ccccc1-c1ccccc1)c1cccc(C(F)(F)F)c1 | 11.4
Cc1cc(S(=O)(=O)N2CCN(c3ccc(F)cc3)CC2)ccc1-n1cnnn1 | -21
O=C(COC(=O)c1cccs1)Nc1ccc(S(=O)(=O)N2CCOCC2)cc1 | -8.57
O=C(c1ccco1)N1CCN(S(=O)(=O)c2ccc3c(c2)CCN3C(=O)C2CC2)CC1 | -16.4
Cc1[nH]n(-c2ccccc2)c(=O)c1N=Nc1ccc(F)cc1 | 12.8
COc1ccc(C(=O)NCc2nnc(SCC(=O)N3CCCCC3)o2)cc1 | 29.8
Cc1ccc(-n2nnnc2SCC(=O)NCC2(N3CCCCC3)CCCCC2)c(C)c1 | -284
Cc1nn(C)c(C(=O)N/N=C/c2ccncc2)c1Cl | 7.35
NC(=O)C1(c2ccccc2)CCCN1C(=O)c1ccccc1Br (stereo not drawn) | 7.39
Cc1c(C(=O)Nc2ccccc2)sc2nc[nH]c(=O)c12 | -38.1
O=C(Nc1ccc(-c2nnc(-c3ccccc3)o2)cc1)C(F)(F)F | 11.3
COC(=O)CCc1c(C)c(C#N)c2nc3ccccc3n2c1N1CCCC1 | 0.655
COc1ccc(C)cc1NC(=O)CSc1nnc2ccc(-c3ccncc3)nn12 | -48.7
O=C(NCCc1c[nH]c2ccccc12)C(=O)NCC1OCCN1S(=O)(=O)c1ccc(F)cc1 (stereo not drawn) | -29.8
O=C(NC1=NCCS1)c1sc2cc(Cl)cc(Cl)c2c1Cl | 15.2
